# The other results are listed elsewhere or left out. The list includes weakly bound sequences.
# Target: T1, MBP-FoxP3dN (UniProt Q99JB6)
# T1 sequence: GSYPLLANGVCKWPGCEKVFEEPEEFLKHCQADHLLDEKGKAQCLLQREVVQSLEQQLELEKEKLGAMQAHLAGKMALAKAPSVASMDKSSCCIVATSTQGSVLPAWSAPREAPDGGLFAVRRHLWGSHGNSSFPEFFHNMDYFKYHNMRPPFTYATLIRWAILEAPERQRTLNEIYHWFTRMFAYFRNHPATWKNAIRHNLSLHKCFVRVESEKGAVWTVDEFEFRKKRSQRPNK
# Experiment: PD-seq (MBP pull-down with sequencing)
# Conditions: 20 mM Tris-HCl pH 7.5, 100 mM NaCl, 1.5 mM MgCl2, 0.4 uM protein, 0.1 uM dsDNA library, 30 min, room temperature, amylose pull-down; high values mean tight binding; double strand, one strand shown
row,Sequence,binding signal (RPM ratio (pull-down/input))
1,GATGATTGTTCTCCCAGCTGATGAATTTAATATCTCGAGTAAACAAATTTTCCTAATCTTTCTGTTCAAGCGCCATCTAC,2.23
2,GATGATTGTTCTCCCAGCTGATGAATTTGATGGATCGAGTAAACAAATTTTCCTAATCTTTCTGTTCAAGCGCCATCTAC,0.718
3,GATGATTGTTCTCCCAGCTGATGAATTTCGTTTCTCGAGTAAACAAATTTTCCTAATCTTTCTGTTCAAGCGCCATCTAC,1.21
4,GATGATTGTTCTCCCAGCTGATGAATTAGATGTATCGAGTAAACAAATTTTCCTAATCTTTCTGTTCAAGCGCCATCTAC,1.79
5,GATGATTGTTCTCCCAGCTGATGAATTTAGTAAGTCGAGTAAACAAATTTTCCTAATCTTTCTGTTCAAGCGCCATCTAC,0.519
6,GATGATTGTTCTCCCAGCTGATGAATTCGGCCTGTCGAGTAAACAAATTTTCCTAATCTTTCTGTTCAAGCGCCATCTAC,4.25
7,GATGATTGTTCTCCCAGCTGATGAATTGGGTCGTTCGAGTAAACAAATTTTCCTAATCTTTCTGTTCAAGCGCCATCTAC,0.461
8,GATGATTGTTCTCCCAGCTGATGAATTCATCGTCTCGAGTAAACAAATTTTCCTAATCTTTCTGTTCAAGCGCCATCTAC,0.859
9,GATGATTGTTCTCCCAGCTGATGAATTTGATGCATCGAGTAAACAAATTTTCCTAATCTTTCTGTTCAAGCGCCATCTAC,3.19
10,GATGATTGTTCTCCCAGCTGATGAATTTGCCGTCTCGAGTAAACAAATTTTCCTAATCTTTCTGTTCAAGCGCCATCTAC,1.17
11,GATGATTGTTCTCCCAGCTGATGAATTATAACACTCGAGTAAACAAATTTTCCTAATCTTTCTGTTCAAGCGCCATCTAC,0.809
12,GATGATTGTTCTCCCAGCTGATGAATTGTACCGATCGAGTAAACAAATTTTCCTAATCTTTCTGTTCAAGCGCCATCTAC,0.409
13,GATGATTGTTCTCCCAGCTGATGAATTTTTAGAGTCGAGTAAACAAATTTTCCTAATCTTTCTGTTCAAGCGCCATCTAC,0.245
14,GATGATTGTTCTCCCAGCTGATGAATTACTAGTGTCGAGTAAACAAATTTTCCTAATCTTTCTGTTCAAGCGCCATCTAC,0.523
15,GATGATTGTTCTCCCAGCTGATGAATTCGAATTTTCGAGTAAACAAATTTTCCTAATCTTTCTGTTCAAGCGCCATCTAC,0.527
16,GATGATTGTTCTCCCAGCTGATGAATTAGCGTGGTCGAGTAAACAAATTTTCCTAATCTTTCTGTTCAAGCGCCATCTAC,1.31
17,GATGATTGTTCTCCCAGCTGATGAATTATCCGACTCGAGTAAACAAATTTTCCTAATCTTTCTGTTCAAGCGCCATCTAC,0.257
18,GATGATTGTTCTCCCAGCTGATGAATTAAGGTATTCGAGTAAACAAATTTTCCTAATCTTTCTGTTCAAGCGCCATCTAC,1.02
19,GATGATTGTTCTCCCAGCTGATGAATTCCCAATGTCGAGTAAACAAATTTTCCTAATCTTTCTGTTCAAGCGCCATCTAC,0.285
20,GATGATTGTTCTCCCAGCTGATGAATTACAACCCTCGAGTAAACAAATTTTCCTAATCTTTCTGTTCAAGCGCCATCTAC,0.475
21,GATGATTGTTCTCCCAGCTGATGAATTTCTACTGTCGAGTAAACAAATTTTCCTAATCTTTCTGTTCAAGCGCCATCTAC,0.236

row,Sequence,binding signal (RPM ratio (pull-down/input))
1,GATGATTGTTCTCCCAGCTGATGAATTTTGCCACTCGAGTAAACAAATTTTCCTAATCTTTCTGTTCAAGCGCCATCTAC,5.96
2,GATGATTGTTCTCCCAGCTGATGAATTCCCTAGATCGAGTAAACAAATTTTCCTAATCTTTCTGTTCAAGCGCCATCTAC,0.184
3,GATGATTGTTCTCCCAGCTGATGAATTCCCCACGTCGAGTAAACAAATTTTCCTAATCTTTCTGTTCAAGCGCCATCTAC,0.249
4,GATGATTGTTCTCCCAGCTGATGAATTATAAGGCTCGAGTAAACAAATTTTCCTAATCTTTCTGTTCAAGCGCCATCTAC,0.361
5,GATGATTGTTCTCCCAGCTGATGAATTATCGTCGTCGAGTAAACAAATTTTCCTAATCTTTCTGTTCAAGCGCCATCTAC,0.436
6,GATGATTGTTCTCCCAGCTGATGAATTAAAGTTGTCGAGTAAACAAATTTTCCTAATCTTTCTGTTCAAGCGCCATCTAC,0.736
7,GATGATTGTTCTCCCAGCTGATGAATTGACTTGTTCGAGTAAACAAATTTTCCTAATCTTTCTGTTCAAGCGCCATCTAC,0.934
8,GATGATTGTTCTCCCAGCTGATGAATTGAGTGGATCGAGTAAACAAATTTTCCTAATCTTTCTGTTCAAGCGCCATCTAC,0.529
9,GATGATTGTTCTCCCAGCTGATGAATTAAGGTCGTCGAGTAAACAAATTTTCCTAATCTTTCTGTTCAAGCGCCATCTAC,0.43
10,GATGATTGTTCTCCCAGCTGATGAATTCATAACTTCGAGTAAACAAATTTTCCTAATCTTTCTGTTCAAGCGCCATCTAC,0.471
11,GATGATTGTTCTCCCAGCTGATGAATTAACAGTCTCGAGTAAACAAATTTTCCTAATCTTTCTGTTCAAGCGCCATCTAC,0.421
12,GATGATTGTTCTCCCAGCTGATGAATTCTATTGGTCGAGTAAACAAATTTTCCTAATCTTTCTGTTCAAGCGCCATCTAC,3.87
13,GATGATTGTTCTCCCAGCTGATGAATTACCTTGATCGAGTAAACAAATTTTCCTAATCTTTCTGTTCAAGCGCCATCTAC,0.28
14,GATGATTGTTCTCCCAGCTGATGAATTATAATAGTCGAGTAAACAAATTTTCCTAATCTTTCTGTTCAAGCGCCATCTAC,0.705
15,GATGATTGTTCTCCCAGCTGATGAATTGAACGTTTCGAGTAAACAAATTTTCCTAATCTTTCTGTTCAAGCGCCATCTAC,0.428
16,GATGATTGTTCTCCCAGCTGATGAATTAAGATCATCGAGTAAACAAATTTTCCTAATCTTTCTGTTCAAGCGCCATCTAC,0.368
17,GATGATTGTTCTCCCAGCTGATGAATTACTATTTTCGAGTAAACAAATTTTCCTAATCTTTCTGTTCAAGCGCCATCTAC,0.582
18,GATGATTGTTCTCCCAGCTGATGAATTCTGTTGTTCGAGTAAACAAATTTTCCTAATCTTTCTGTTCAAGCGCCATCTAC,7.51
19,GATGATTGTTCTCCCAGCTGATGAATTACCGCGCTCGAGTAAACAAATTTTCCTAATCTTTCTGTTCAAGCGCCATCTAC,0.468
20,GATGATTGTTCTCCCAGCTGATGAATTGTCATCGTCGAGTAAACAAATTTTCCTAATCTTTCTGTTCAAGCGCCATCTAC,0.718
21,GATGATTGTTCTCCCAGCTGATGAATTCTGACATTCGAGTAAACAAATTTTCCTAATCTTTCTGTTCAAGCGCCATCTAC,1.56

row,Sequence,binding signal (RPM ratio (pull-down/input))
1,GATGATTGTTCTCCCAGCTGATGAATTTCCGTGATCGAGTAAACAAATTTTCCTAATCTTTCTGTTCAAGCGCCATCTAC,0.36
2,GATGATTGTTCTCCCAGCTGATGAATTGTTTTGTTCGAGTAAACAAATTTTCCTAATCTTTCTGTTCAAGCGCCATCTAC,4.09
3,GATGATTGTTCTCCCAGCTGATGAATTATTGTTCTCGAGTAAACAAATTTTCCTAATCTTTCTGTTCAAGCGCCATCTAC,2.25
4,GATGATTGTTCTCCCAGCTGATGAATTACGCCCTTCGAGTAAACAAATTTTCCTAATCTTTCTGTTCAAGCGCCATCTAC,1.36
5,GATGATTGTTCTCCCAGCTGATGAATTTCAGCCCTCGAGTAAACAAATTTTCCTAATCTTTCTGTTCAAGCGCCATCTAC,0.402
6,GATGATTGTTCTCCCAGCTGATGAATTAGTGACTTCGAGTAAACAAATTTTCCTAATCTTTCTGTTCAAGCGCCATCTAC,0.834
7,GATGATTGTTCTCCCAGCTGATGAATTCATTGGGTCGAGTAAACAAATTTTCCTAATCTTTCTGTTCAAGCGCCATCTAC,1.26
8,GATGATTGTTCTCCCAGCTGATGAATTACGATGGTCGAGTAAACAAATTTTCCTAATCTTTCTGTTCAAGCGCCATCTAC,0.684
9,GATGATTGTTCTCCCAGCTGATGAATTAATCTGGTCGAGTAAACAAATTTTCCTAATCTTTCTGTTCAAGCGCCATCTAC,0.225
10,GATGATTGTTCTCCCAGCTGATGAATTTGAGGTGTCGAGTAAACAAATTTTCCTAATCTTTCTGTTCAAGCGCCATCTAC,1.4
11,GATGATTGTTCTCCCAGCTGATGAATTTTTTCCGTCGAGTAAACAAATTTTCCTAATCTTTCTGTTCAAGCGCCATCTAC,0.197
12,GATGATTGTTCTCCCAGCTGATGAATTCCAACATTCGAGTAAACAAATTTTCCTAATCTTTCTGTTCAAGCGCCATCTAC,0.667
13,GATGATTGTTCTCCCAGCTGATGAATTGGGCTCGTCGAGTAAACAAATTTTCCTAATCTTTCTGTTCAAGCGCCATCTAC,0.553
14,GATGATTGTTCTCCCAGCTGATGAATTATACAAATCGAGTAAACAAATTTTCCTAATCTTTCTGTTCAAGCGCCATCTAC,0.711
15,GATGATTGTTCTCCCAGCTGATGAATTCCAAGTATCGAGTAAACAAATTTTCCTAATCTTTCTGTTCAAGCGCCATCTAC,0.407
16,GATGATTGTTCTCCCAGCTGATGAATTATATAGTTCGAGTAAACAAATTTTCCTAATCTTTCTGTTCAAGCGCCATCTAC,0.79
17,GATGATTGTTCTCCCAGCTGATGAATTGGGTTCCTCGAGTAAACAAATTTTCCTAATCTTTCTGTTCAAGCGCCATCTAC,0.652
18,GATGATTGTTCTCCCAGCTGATGAATTACTACAATCGAGTAAACAAATTTTCCTAATCTTTCTGTTCAAGCGCCATCTAC,0.669
19,GATGATTGTTCTCCCAGCTGATGAATTGGTAACGTCGAGTAAACAAATTTTCCTAATCTTTCTGTTCAAGCGCCATCTAC,0.495
20,GATGATTGTTCTCCCAGCTGATGAATTCCACTCTTCGAGTAAACAAATTTTCCTAATCTTTCTGTTCAAGCGCCATCTAC,0.373
21,GATGATTGTTCTCCCAGCTGATGAATTGGTGAAGTCGAGTAAACAAATTTTCCTAATCTTTCTGTTCAAGCGCCATCTAC,0.273

# Reference: paper PMC12820563
